The text below walks through data of publication PMC10184828.

To fix the notation:
B1: Sec16 fragment 1856–2195 (activation domain-fused) (domain or fragment, UniProt P48415 1856-2195)
chain: STDATKMNYSPYVPQSTAASADGDESTILKTSPAIYARTHQAHASNPSQYFPLVNQANETASFELSESTSQAQSNGNVASENRFSPIKKAEVVEKDTFQPTIRKASTNQYRAFKPLESDADKYNDVIEDESDDDNMSTDEAKNRKEEKKNVNMKKETKPSNKDIDDKSNGWFGWLKKDTGDKKVYKAKLGHKNTLYYDEKLKRWVNKDATEEEKQKIIESSAPPPPPIVKRKDGGPKTKPRSGPINNSLPPVHATSVIPNNPITGEPLPIKTSPSPTGPNPNNSPSPSSPISRISGVNLTSKKANGLDDLLSLAGGPKPASTRRKKKTARGYVNVMDNIQ
B2: Sec16 fragment 1639–1996 (activation domain-fused) (domain or fragment, UniProt P48415 1639-1996)
chain: MYSPSVEALPIDPVVPQVHETGYNDFGNKHSQKSMPEDESHTSHDNSNADQNTLKDSADVTDETMDIEGPGFNDVKNLLPMEPNHQPTSTVNPIQTISDDIQPILQTNVEVRGTDASKMENSLPSIENERSSEEQPENISKSASSAYLPSTGGLSLENRPLTQDENSISETVQSTYLPAGSISMEAKPISQVQDVPRNVNNKASKLVEQHMAPPKPKSTDATKMNYSPYVPQSTAASADGDESTILKTSPAIYARTHQAHASNPSQYFPLVNQANETASFELSESTSQAQSNGNVASENRFSPIKKAEVVEKDTFQPTIRKASTNQYRAFKPLESDADKYNDVIEDESDDDNMSTDEA
B3: Sec16 fragment 1639–2195 Δ1856–1967 (activation domain-fused) (domain or fragment, UniProt P48415)
chain: MYSPSVEALPIDPVVPQVHETGYNDFGNKHSQKSMPEDESHTSHDNSNADQNTLKDSADVTDETMDIEGPGFNDVKNLLPMEPNHQPTSTVNPIQTISDDIQPILQTNVEVRGTDASKMENSLPSIENERSSEEQPENISKSASSAYLPSTGGLSLENRPLTQDENSISETVQSTYLPAGSISMEAKPISQVQDVPRNVNNKASKLVEQHMAPPKPKFKPLESDADKYNDVIEDESDDDNMSTDEAKNRKEEKKNVNMKKETKPSNKDIDDKSNGWFGWLKKDTGDKKVYKAKLGHKNTLYYDEKLKRWVNKDATEEEKQKIIESSAPPPPPIVKRKDGGPKTKPRSGPINNSLPPVHATSVIPNNPITGEPLPIKTSPSPTGPNPNNSPSPSSPISRISGVNLTSKKANGLDDLLSLAGGPKPASTRRKKKTARGYVNVMDNIQ
B4: Sec16 fragment 1968–2195 (activation domain-fused) (domain or fragment, UniProt P48415 1968-2195)
chain: FKPLESDADKYNDVIEDESDDDNMSTDEAKNRKEEKKNVNMKKETKPSNKDIDDKSNGWFGWLKKDTGDKKVYKAKLGHKNTLYYDEKLKRWVNKDATEEEKQKIIESSAPPPPPIVKRKDGGPKTKPRSGPINNSLPPVHATSVIPNNPITGEPLPIKTSPSPTGPNPNNSPSPSSPISRISGVNLTSKKANGLDDLLSLAGGPKPASTRRKKKTARGYVNVMDNIQ
B5: Sec16 fragment 1639–2195 (activation domain-fused) (domain or fragment, UniProt P48415 1639-2195)
chain: MYSPSVEALPIDPVVPQVHETGYNDFGNKHSQKSMPEDESHTSHDNSNADQNTLKDSADVTDETMDIEGPGFNDVKNLLPMEPNHQPTSTVNPIQTISDDIQPILQTNVEVRGTDASKMENSLPSIENERSSEEQPENISKSASSAYLPSTGGLSLENRPLTQDENSISETVQSTYLPAGSISMEAKPISQVQDVPRNVNNKASKLVEQHMAPPKPKSTDATKMNYSPYVPQSTAASADGDESTILKTSPAIYARTHQAHASNPSQYFPLVNQANETASFELSESTSQAQSNGNVASENRFSPIKKAEVVEKDTFQPTIRKASTNQYRAFKPLESDADKYNDVIEDESDDDNMSTDEAKNRKEEKKNVNMKKETKPSNKDIDDKSNGWFGWLKKDTGDKKVYKAKLGHKNTLYYDEKLKRWVNKDATEEEKQKIIESSAPPPPPIVKRKDGGPKTKPRSGPINNSLPPVHATSVIPNNPITGEPLPIKTSPSPTGPNPNNSPSPSSPISRISGVNLTSKKANGLDDLLSLAGGPKPASTRRKKKTARGYVNVMDNIQ

Results are given in words; binding and its absence hold for the method and conditions named. Some results given as binding are weak or reduced against the parent protein; the word gives no strength. Where a sequence is shown, tags or fusion partners need not be part of it.

The target in the experiment is T1, Sec23 (binding domain-fused) (S. cerevisiae) (UniProt P15303).
T1 sequence: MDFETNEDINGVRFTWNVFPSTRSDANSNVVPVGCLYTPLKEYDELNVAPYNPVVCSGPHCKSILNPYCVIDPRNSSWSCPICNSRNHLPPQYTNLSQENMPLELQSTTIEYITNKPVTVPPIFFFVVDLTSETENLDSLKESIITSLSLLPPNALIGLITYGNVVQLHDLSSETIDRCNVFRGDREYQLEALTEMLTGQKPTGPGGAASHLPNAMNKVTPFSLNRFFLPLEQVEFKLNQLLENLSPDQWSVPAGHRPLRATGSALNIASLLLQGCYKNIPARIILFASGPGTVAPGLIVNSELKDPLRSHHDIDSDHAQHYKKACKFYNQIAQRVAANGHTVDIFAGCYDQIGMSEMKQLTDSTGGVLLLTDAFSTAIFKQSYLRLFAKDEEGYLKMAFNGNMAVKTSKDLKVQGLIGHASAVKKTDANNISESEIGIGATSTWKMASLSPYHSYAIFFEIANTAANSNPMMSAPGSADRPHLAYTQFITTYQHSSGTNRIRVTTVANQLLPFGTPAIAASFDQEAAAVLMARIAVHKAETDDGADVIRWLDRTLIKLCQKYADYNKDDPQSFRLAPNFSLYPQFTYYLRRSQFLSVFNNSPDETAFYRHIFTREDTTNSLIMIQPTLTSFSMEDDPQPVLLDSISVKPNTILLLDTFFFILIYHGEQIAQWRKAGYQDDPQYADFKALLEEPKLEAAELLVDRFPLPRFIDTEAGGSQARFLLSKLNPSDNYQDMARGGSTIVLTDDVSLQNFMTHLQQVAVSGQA
Nature of the experiment: two-hybrid; Gal4 activation domain-fused Sec16 fragments (pGAD-C1) with Gal4 DNA-binding domain-fused Sec23, Sed4C, Sec12C or Sec12C chimeras (pGBDU-C1); growth on plates lacking histidine, leucine and uracil at 30°C for 4 days.
As to B1, the binding entry was “binds”.

On to B2, for which the binding result was “no binding”.

With B3, the binding entry is “binds”.

As to B4, the binding result is on record as “binds”.

For B5, the binding result is listed as “binds”.
